Test results taken from patent publication US20180193477A1 (Zymeworks, published 2018).

Biological target: T1, Recombinant CD3epsilon/delta Fc fusion protein (Sino Biological) (UniProt P07766 23-126; P04234 22-105)
T1 construct: Bought reagent; also called recombinant CD3 fusion protein; CD3 antigen; not shown: Fc part of the bought fusion protein; not described
Test: SPR, BioRad ProteOn XPR36, 25 C, anti-Fc capture chip, Equilibrium Fit model, mean of three runs

B1: v6751, bispecific anti-CD3-CD19 antigen-binding construct (murine HD37 Fab / murine OKT3 scFv, heterodimeric Fc) (bispecific antibody, human IgG1, kappa)
heavy: QVQLQQSGAELVRPGSSVKISCKASGYAFSSYWMNWVKQRPGQGLEWIGQIWPGDGDTNYNGKFKGKATLTADESSSTAYMQLSSLASEDSAVYFCARRETTTVGRYYYAMDYWGQGTTVTVSSASTKGPSVFPLAPSSKSTSGGTAALGCLVKDYFPEPVTVSWNSGALTSGVHTFPAVLQSSGLYSLSSVVTVPSSSLGTQTYICNVNHKPSNTKVDKK[human IgG1 Fc with changes omitted here]
chain: QIVLTQSPAIMSASPGEKVTMTCSASSSVSYMNWYQQKSGTSPKRWIYDTSKLASGVPAHFRGSGSGTSYSLTISGMEAEDAATYYCQQWSSNPFTFGSGTKLEINGGGGSGGGGSGGGGSQVQLQQSGAELARPGASVKMS[about 80 residues omitted here][about 250 residues omitted here]
light: DIQLTQSPASLAVSLGQRATISCKASQSVDYDGDSYLNWYQQIPGQPPKLLIYDASNLVSGIPPRFSGSGSGTDFTLNIHPVEKVDAATYHCQQSTEDPWTFGGGTKLEIKRTVAAPSVFIFPPSDEQLKSGTASVVCLLNNFYPREAKVQWKVDNALQSGNSQESVTEQDSKDSTYSLSSTLTLSKADYEKHKVYACEVTHQGLSSPVTKSFNRGEC
notes: also called parental murine construct v6751
- Kd: 141 nM
